From PubChem BioAssay AID624417 (National Center for Advancing Translational Sciences (NCATS), 2012)
In all, about 410,000 compounds went through this assay and about 6,400 (1.6%) were called active. Inconclusive results, whose numbers are uncertain, are shown with a selection of clear calls. Calls come from the whole dose curve; as a rule, active = well fitted inhibition curve with a large enough effect; inconclusive = small, poorly fitted or top-dose-only effect; inactive = no such curve, though single readings can be large or run the other way. Potencies of inconclusive entries are left out as doubtful fits.

The molecules below were run against Glucagon-like peptide 1 receptor (Homo sapiens) (UniProt P43220) (assay: qHTS of GLP-1 Receptor Inverse Agonists (Inhibition Mode)). Conditions: HEK293 GLP-1R CRE-luciferase, luminescence, 24 h, GLP-1R form is constitutively active; series mostly up to 38.3 µM.
Summary of the method: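 GLP-1R inverse agonism mode: basal reporter luminescence in engineered HEK293 cells measured after one day of compound exposure at 37 deg C, with a 12 min room-temperature detection step.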
Note: nearly all actives have a fitted effect of over 55% in size.
Potency is the fitted concentration of half-maximal effect; tags give direction and shape of the fitted curve.

Sequence of UniProt P43220 (P43220 whole entry, looked up): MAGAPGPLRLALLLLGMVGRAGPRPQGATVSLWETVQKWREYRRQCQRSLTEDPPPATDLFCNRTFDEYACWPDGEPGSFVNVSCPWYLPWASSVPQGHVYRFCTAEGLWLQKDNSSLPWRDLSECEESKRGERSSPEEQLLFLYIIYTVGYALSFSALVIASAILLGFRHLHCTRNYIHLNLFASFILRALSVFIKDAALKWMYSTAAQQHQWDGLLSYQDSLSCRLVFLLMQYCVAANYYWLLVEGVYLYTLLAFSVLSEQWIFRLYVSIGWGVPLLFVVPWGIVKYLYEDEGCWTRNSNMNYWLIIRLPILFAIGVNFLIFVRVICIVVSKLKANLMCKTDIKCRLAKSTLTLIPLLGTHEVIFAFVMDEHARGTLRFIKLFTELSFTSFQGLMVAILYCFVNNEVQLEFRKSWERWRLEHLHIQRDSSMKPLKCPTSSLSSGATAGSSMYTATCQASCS

Structure (SMILES) | Potency
CSc1ccc(CCNC(=O)CCn2c(=O)c3cccn3c3cccnc32)cc1 | inactive
Cc1cc(C=O)c(C)c2c1[nH]c1ccccc12 | inconclusive [inhibitor, partial curve]
Cc1ccc(S(=O)(=O)N(C)c2ccc(C(=O)NCC(c3ccccc3)N3CCCC3)cc2)cc1 (stereo not drawn) | inconclusive [inhibitor, partial curve, poor fit]
CCCCN(C)C(=O)C1CCN(Cc2ccc(OCc3ccccc3)cc2)CC1 | inconclusive [inhibitor, partial curve, poor fit]
COc1cc(/C=N/NC(=S)NC2CC3CC2C2C=CCC32)ccc1O (stereo not drawn) | inconclusive [inhibitor, single point]
O=c1[nH]c(=O)n(Cc2ccccc2)c2nc(-c3ccc(Oc4ccc(F)cc4)c([N+](=O)[O-])c3)n(CCO)c12 | inconclusive [inhibitor, single point]
CCN(CC)c1ccc(NC(=O)CN(C)Cc2cccs2)cc1 | active: 11.2 µM
COc1ccc2cc3c(N)nn(C(=O)c4ccc(F)cc4)c3nc2c1 | inconclusive [inhibitor, full curve]
O=C1C2CC=C(Cl)CC2C(=O)N1CCCCCCN1C(=O)C2CC=C(Cl)CC2C1=O (stereo not drawn) | inconclusive [inhibitor, single point]
COc1ccccc1NC(=O)NN1CCCCC1 | inconclusive [inhibitor, partial curve, poor fit]
COc1cc(CN2CCC(C(=O)NCC(C)(C)CN(C)C)CC2)ccc1OCc1ccccc1 | inconclusive [inhibitor, full curve, poor fit]
CCc1ccc(NC(=O)Cn2nc(C(F)(F)F)c3c2CCC3)cc1 | inconclusive [inhibitor, partial curve, poor fit]
O=C(Nc1ccc(N2CCCCC2)cc1)c1cccnc1 | inconclusive [inhibitor, single point]
Fc1ccc(Oc2nc(-c3ccccn3)nc3ccccc23)cc1 | active: 2.82 µM
Cc1nc2sccn2c(=O)c1S(=O)(=O)Nc1ccc(N2CCN(S(C)(=O)=O)CC2)cc1 | inconclusive [inhibitor, single point]
Cc1cccc(C2Nc3ccccc3C(=O)N2c2ccc(F)cc2)n1 (stereo not drawn) | inactive
Cc1c(Nc2nc(-c3ccc(Cl)cc3)cs2)c(=O)n(-c2ccccc2)n1C | inconclusive [inhibitor, partial curve, poor fit]
COc1cc2c(cc1OC)C1(C)N(CC2)C(C(C)=O)=NN1c1ccc(Cl)cc1 (stereo not drawn) | inconclusive [inhibitor, single point]
